The list shows a part of the results. Many values rest on one well or one pass, so single values are uncertain.

The source of these data is the supplement of paper PMC4604168 (melanoma cell lines).
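Note: cell number obtained by counting DAPI-stained nuclei in high-throughput microscope images with image analysis software, screen run in 1,536-well plates.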

One experiment concerns WM3619. In words: cell count relative to DMSO control; melanoma cells; higher = more viable cells. The note with it: library dose: low library concentration; 72 h.
In the case of `Nc1nc(F)nc2c1ncn2[C@@H]1O[C@H](CO)[C@@H](O)[C@@H]1O` [fludarabine] + CO[C@@H]1[C@H](N(C)C(=O)c2ccccc2)C[C@H]2O[C@]1(C)n1c3ccccc3c3c4c(c5c6ccccc6n2c5c31)C(=O)NC4 [Midostaurin] (first compound 0.2 µM, partner dose 0.08 µM), the cell count was 112%.

`Nc1ncn([C@H]2C[C@H](O)[C@@H](CO)O2)c(=O)n1` [decitabine] + O=C1NC(=O)/C(=C/c2ccc(-c3ccc(F)cc3O)o2)S1 [AS252424] (first compound 0.1 µM, partner dose 1 µM) came in with a cell count of 73.1%.

In turn, `Nc1ncn([C@H]2C[C@H](O)[C@@H](CO)O2)c(=O)n1` [decitabine] + CC(C)(C)c1cnc(CSc2cnc(NC(=O)C3CCNCC3)s2)o1 [SNS-032] (first compound 0.1 µM, partner dose 0.01 µM) displayed a cell count of 91.4%.

With `Nc1ccn([C@@H]2O[C@H](CO)[C@@H](O)C2(F)F)c(=O)n1` [gemcitabine] + COc1ccc2c(c1)CCC1C2CCC2(C)C(NCCCCCCN3C(=O)C=CC3=O)CCC12 [U73122] (first compound 0.0004 µM, partner dose 0.4 µM), the cell count stood at 65%.

As for `Nc1ncn([C@H]2C[C@H](O)[C@@H](CO)O2)c(=O)n1` [decitabine] + COc1cc2c(Oc3ccc4[nH]c(C)cc4c3F)ncnc2cc1OCCCN1CCCC1 [cediranib] (first compound 0.1 µM, partner dose 0.4 µM), the cell count is 115%.

With `Nc1ncn([C@H]2C[C@H](O)[C@@H](CO)O2)c(=O)n1` [decitabine] + CN(C)S(=O)(=O)c1ccc2c(c1)/C(=C/c1cc3c([nH]1)CCCC3)C(=O)N2 [SU6656] (first compound 0.1 µM, partner dose 0.4 µM), the cell count turned out to be 82.2%.

For `CC(=O)O[C@@]12CO[C@@H]1C[C@H](O)[C@@]1(C)C(=O)[C@H](O)C3=C(C)[C@@H](OC(=O)[C@H](O)[C@@H](NC(=O)OC(C)(C)C)c4ccccc4)C[C@@](O)([C@@H](OC(=O)c4ccccc4)[C@H]21)C3(C)C` [Docetaxel] + COc1cc(N2CCC(N3CCN(C)CC3)CC2)ccc1Nc1ncc(Cl)c(Nc2ccccc2S(=O)(=O)C(C)C)n1 [NVP-TAE684] (first compound 0.0001 µM, partner dose 0.08 µM), the cell count is 44%.

The compound `Nc1nc(F)nc2c1ncn2[C@@H]1O[C@H](CO)[C@@H](O)[C@@H]1O` [fludarabine] + O=C(Nc1cccc(Cl)c1)Nc1ncc(CCNc2ncnc3ccsc23)s1 [SNS314] (first compound 0.2 µM, partner dose 0.0008 µM) registered a cell count of 143%.

Take `CC(=O)O[C@@]12CO[C@@H]1C[C@H](O)[C@@]1(C)C(=O)[C@H](O)C3=C(C)[C@@H](OC(=O)[C@H](O)[C@@H](NC(=O)OC(C)(C)C)c4ccccc4)C[C@@](O)([C@@H](OC(=O)c4ccccc4)[C@H]21)C3(C)C` [Docetaxel] + CC(C)CCN1c2nc(Nc3cc(F)c(O)c(F)c3)ncc2N(C)C(=O)C1C [BID1870] (first compound 0.0001 µM, partner dose 0.2 µM): the cell count worked out at 71.1%.

`Nc1ncn([C@H]2C[C@H](O)[C@@H](CO)O2)c(=O)n1` [decitabine] + COc1ccc(-c2ccc3c(N4CCOCC4)nc(N4C[C@@H](C)O[C@@H](C)C4)nc3n2)cc1CO [KU0063794] (first compound 0.1 µM, partner dose 0.02 µM) came in with a cell count of 90.4%.

Consider `Nc1ccn([C@@H]2O[C@H](CO)[C@@H](O)C2(F)F)c(=O)n1` [gemcitabine] + CC1(C)NC(=O)N(c2ccc([N+](=O)[O-])c(C(F)(F)F)c2)C1=O [nilutamide] (first compound 0.0004 µM, partner dose 1 µM), for which the cell count is 77.8%.

For the compound `CC(=O)c1c(C)c2cnc(Nc3ccc(N4CCNCC4)cn3)nc2n(C2CCCC2)c1=O` [palbociclib] + CC(C)(C)c1cnc(CSc2cnc(NC(=O)C3CCNCC3)s2)o1 [SNS-032] (first compound 0.04 µM, partner dose 0.01 µM), the cell count came to 65.9%.

For `Nc1ccn([C@@H]2O[C@H](CO)[C@@H](O)C2(F)F)c(=O)n1` [gemcitabine] + Cc1ccc(NC(=O)c2cccc(N(C)C)c2)cc1NC(=O)c1ccc(O)cc1 [ZM336372] (first compound 0.0004 µM, partner dose 2 µM), the cell count amounted to 92.5%.

A further experiment has as its system WM451Lu. Described as above. The note with it: library dose: low library concentration; 72 h.
The compound `CC(=O)O[C@@]12CO[C@@H]1C[C@H](O)[C@@]1(C)C(=O)[C@H](O)C3=C(C)[C@@H](OC(=O)[C@H](O)[C@@H](NC(=O)OC(C)(C)C)c4ccccc4)C[C@@](O)([C@@H](OC(=O)c4ccccc4)[C@H]21)C3(C)C` [Docetaxel] + CN(NC(=O)CC(=O)NN(C)C(=S)c1ccccc1)C(=S)c1ccccc1 [STA4783] (first compound 0.0001 µM, partner dose 0.006 µM) displayed a cell count of 38.4%.

`CC(=O)O[C@@]12CO[C@@H]1C[C@H](O)[C@@]1(C)C(=O)[C@H](O)C3=C(C)[C@@H](OC(=O)[C@H](O)[C@@H](NC(=O)OC(C)(C)C)c4ccccc4)C[C@@](O)([C@@H](OC(=O)c4ccccc4)[C@H]21)C3(C)C` [Docetaxel] + Cc1ccc(NC(=O)c2cccc(N(C)C)c2)cc1NC(=O)c1ccc(O)cc1 [ZM336372] (first compound 0.0001 µM, partner dose 2 µM) returned a cell count of 67.7%.

`Nc1ncn([C@H]2C[C@H](O)[C@@H](CO)O2)c(=O)n1` [decitabine] + CO[C@@H]1[C@H](N(C)C(=O)c2ccccc2)C[C@H]2O[C@]1(C)n1c3ccccc3c3c4c(c5c6ccccc6n2c5c31)C(=O)NC4 [Midostaurin] (first compound 0.1 µM, partner dose 0.08 µM) registered a cell count of 80.2%.

Turning to `Nc1ccn([C@@H]2O[C@H](CO)[C@@H](O)C2(F)F)c(=O)n1` [gemcitabine] + CCc1ccc(CCOc2ccc(CC3SC(=O)NC3=O)cc2)nc1 [pioglitazone] (first compound 0.0004 µM, partner dose 2 µM), the cell count was 104%.

Take `CC(=O)c1c(C)c2cnc(Nc3ccc(N4CCNCC4)cn3)nc2n(C2CCCC2)c1=O` [palbociclib] + C=CCn1c(=O)c2cnc(Nc3ccc(N4CCN(C)CC4)cc3)nc2n1-c1cccc(C(C)(C)O)n1 [MK1775] (first compound 0.04 µM, partner dose 0.02 µM): the cell count amounted to 71.7%.

In the case of `CC(=O)c1c(C)c2cnc(Nc3ccc(N4CCNCC4)cn3)nc2n(C2CCCC2)c1=O` [palbociclib] + Oc1cc(-c2nc(-c3ccccc3)[nH]c2-c2ccncc2)ccc1Cl [L779450] (first compound 0.04 µM, partner dose 0.2 µM), the cell count amounted to 60.7%.

On to `Nc1ncn([C@H]2C[C@H](O)[C@@H](CO)O2)c(=O)n1` [decitabine] + c1cc(-c2cnn3cc(-c4ccc(OCCN5CCCCC5)cc4)cnc23)ccn1 [Dorsomorphin] (first compound 0.1 µM, partner dose 0.4 µM), for which the cell count came to 99.1%.

Take `Nc1ncn([C@H]2C[C@H](O)[C@@H](CO)O2)c(=O)n1` [decitabine] + O=C(Nc1ccccc1)c1cc([N+](=O)[O-])ccc1Cl [GW9662] (first compound 0.1 µM, partner dose 2 µM): the cell count turned out to be 94.9%.

On to `Nc1ncn([C@H]2C[C@H](O)[C@@H](CO)O2)c(=O)n1` [decitabine] + O=C(Nc1cccc(Cl)c1)Nc1ncc(CCNc2ncnc3ccsc23)s1 [SNS314] (first compound 0.1 µM, partner dose 0.0008 µM), for which the cell count turned out to be 97.5%.

With `CC(=O)O[C@@]12CO[C@@H]1C[C@H](O)[C@@]1(C)C(=O)[C@H](O)C3=C(C)[C@@H](OC(=O)[C@H](O)[C@@H](NC(=O)OC(C)(C)C)c4ccccc4)C[C@@](O)([C@@H](OC(=O)c4ccccc4)[C@H]21)C3(C)C` [Docetaxel] + Cn1cncc1[C@@](N)(c1ccc(Cl)cc1)c1ccc2c(c1)c(-c1cccc(Cl)c1)cc(=O)n2C [tipifarnib] (first compound 0.0001 µM, partner dose 0.01 µM), the cell count came to 64%.

The compound `Nc1nc(F)nc2c1ncn2[C@@H]1O[C@H](CO)[C@@H](O)[C@@H]1O` [fludarabine] + CC1(C)NC(=O)N(c2ccc([N+](=O)[O-])c(C(F)(F)F)c2)C1=O [nilutamide] (first compound 0.2 µM, partner dose 1 µM) returned a cell count of 46.5%.

In turn, `Nc1ncn([C@H]2C[C@H](O)[C@@H](CO)O2)c(=O)n1` [decitabine] + O=C(CCCCCCC(=O)Nc1ccccc1)NO [vorinostat] (first compound 0.1 µM, partner dose 0.08 µM) returned a cell count of 102%.

Compound `CC(=O)c1c(C)c2cnc(Nc3ccc(N4CCNCC4)cn3)nc2n(C2CCCC2)c1=O` [palbociclib] + COc1ccc(-c2ccc3c(N4CCOCC4)nc(N4C[C@@H](C)O[C@@H](C)C4)nc3n2)cc1CO [KU0063794] (first compound 0.04 µM, partner dose 0.02 µM) returned a cell count of 78.3%.

In turn, `Nc1nc(F)nc2c1ncn2[C@@H]1O[C@H](CO)[C@@H](O)[C@@H]1O` [fludarabine] + O=C(O)C(=O)Nc1sc2c(c1C(=O)O)CCNC2 [TCS401] (first compound 0.2 µM, partner dose 1.66667 µM) registered a cell count of 44.4%.

For `Nc1ncn([C@H]2C[C@H](O)[C@@H](CO)O2)c(=O)n1` [decitabine] + COc1cc(Nc2ncc(F)c(Nc3ccc4c(n3)NC(=O)C(C)(C)O4)n2)cc(OC)c1OC [Tamatinib] (first compound 0.1 µM, partner dose 0.4 µM), the cell count was found to be 108%.
